In PubChem BioAssay AID588855 (National Center for Advancing Translational Sciences (NCATS), 2011):
In all, about 410,000 compounds went through this assay and about 5,000 (1.2%) were called active. The shares of active, inactive and inconclusive entries below differ from those in the screen. The call rests on the fitted dose curve; in most records, active means well fitted inhibition curve with a large enough effect; inconclusive means small, poorly fitted or top-dose-only effect; inactive means no such curve, though single readings can be large or run the other way. A potency beside an inconclusive call is a rough fit, not a confirmed value.

Assay: qHTS for Inhibitors of TGF-b; further: nearly all actives have a fitted effect of over 65% in size
Details: HepG2 CAGA-GFP TGF-b/SMAD3 reporter, GFP fluorescence, 18 h, TGF-beta stimulated, 500 pg/mL final; series mostly up to 46.1 µM
Method in brief: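 First, reporter cells (HEPG2 CAGA-GFP) rested 2 h at 37 degrees C. Next, compounds were pinned in and TGF-beta added to 500 pg/mL final. After 18 h, GFP was imaged per cell and summed per well.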
Potency means the concentration at half of the fitted maximal effect; tags describe the fitted curve by direction and shape.

Structure (SMILES) | Potency
NC(=O)N/N=C(/CCCCCC/C(=N\NC(N)=O)c1ccccc1)c1ccccc1 | inconclusive: 7.08 µM [inhibitor, full curve, poor fit]
COc1ccc(C2=NCCn3cccc32)c(OC)c1 | inconclusive: 15.8 µM [inhibitor, partial curve]
CCOCCCNc1nc(-c2ccccc2)nc2ccccc12 | inconclusive: 15.8 µM [inhibitor, single point]
O=C(Nc1ccc(CN2CCCCC2)cc1)c1cccc(Br)c1 | inactive
O=C(NC1CCCC1)C(c1ccc(F)cc1)N(C(=O)c1csnn1)C1CCCC1 (stereo not drawn) | inconclusive: 2.82 µM [inhibitor, single point]
COc1ccc(F)cc1S(=O)(=O)NCC(c1ccco1)S(=O)(=O)c1ccc(F)cc1 (stereo not drawn) | inconclusive: 15.8 µM [inhibitor, partial curve, poor fit]
NNC(=O)c1cc2c(N3CCC(Cc4ccccc4)CC3)ncnc2s1 | inconclusive: 14.1 µM [inhibitor, single point]
C=CCN=c1scc(-c2ccc(F)cc2)n1/N=C/c1ccccn1 | inconclusive: 2.82 µM [inhibitor, full curve]
C(=NNc1ccc2ccccc2n1)c1ccccn1 | inconclusive: 11.2 µM [inhibitor, partial curve]
CC1(c2nnc(-c3cccc(Cl)c3)o2)CC(c2ccc(OC(F)(F)F)cc2)=NO1 (stereo not drawn) | inconclusive: 35.5 µM [inhibitor, single point]
CN(C)CCCNc1nc2cc(-c3ccc(F)cc3)sc2c(=O)n1C | inconclusive: 22.4 µM [inhibitor, single point]
Cc1sc2nc(C3CC3)nc(N3CCN(C(=O)c4ccc(Cl)cc4)CC3)c2c1C | inconclusive: 12.6 µM [inhibitor, partial curve, poor fit]
CCN1CCC2(CC1)N=C(c1ccc(F)cc1)C(=S)N2C(=O)c1ccc(C)cc1 | inconclusive: 35.5 µM [inhibitor, single point]
O=C(N/N=C/c1ccc([N+](=O)[O-])o1)c1ccccc1NS(=O)(=O)c1cccs1 | inconclusive: 14.1 µM [inhibitor, partial curve, poor fit]
O=c1cc(-c2ccccc2)[nH]c2ccc(F)cc12 | inconclusive: 7.94 µM [inhibitor, partial curve]
COc1ccc(-c2noc(CCC(=O)N3CCN(c4cccc(C)c4C)CC3)n2)cc1 | inconclusive: 11.2 µM [inhibitor, partial curve]
NC(=S)Nc1nc2ccccc2s1 | inconclusive: 22.4 µM [inhibitor, single point]
CCCCNc1c(-c2cccc(Sc3ccc(OC)cc3)c2)nc2ccccn12 | inconclusive: 20 µM [inhibitor, single point]
CC(C)NC(=O)c1cccc2c(-c3ccc(F)c(F)c3)coc12 | inactive
CC1CCC2(CC1)NC(=O)N(CC(=O)Nc1cccc(C#N)c1)C2=O (stereo not drawn) | inactive
COc1ccc(-c2c(C)n([O-])c(C)c(C)[n+]2=O)cc1 | inconclusive: 5.62 µM [inhibitor, single point]
COCCN(Cc1cc2cc3c(cc2nc1Cl)OCO3)C(=O)Nc1ccccc1OC | inactive
Cc1ccn2cc(-c3ccc(NC(=O)c4ccco4)cc3)nc2c1 | inactive

Structure (SMILES) | Potency
O=C(/C=C/c1ccccc1)CCN1CCCCC1 | active: 11.2 µM
CCOc1ccccc1NS(=O)(=O)c1ccc2c(c1)CC(C)N2C(=O)C1CCC1 (stereo not drawn) | inconclusive: 14.1 µM [inhibitor, single point]
O=C(Nc1ccccc1[N+](=O)[O-])c1cccc(N2C(=O)CCC2=O)c1 | inactive
CC(=O)N(C(C)=O)c1nc(-c2ccccc2)cn1/N=C/c1ccccc1 | inconclusive: 35.5 µM [inhibitor, single point]
CC(C)(C)C1COc2ccccc2N1C(=O)c1cccc(Cl)c1 (stereo not drawn) | inactive
O=C1CCCN2N=C(SCC(=O)Nc3ccc(Cl)cc3)SC2=N1 | inactive
Cc1ccc(NC(=O)Nc2nc(-c3ccc(C)s3)cs2)cc1 | inconclusive: 1.12 µM [inhibitor, partial curve, poor fit]
CCc1c(C)c(C#N)c2[nH]c3ccccc3n2c1=S | inconclusive: 22.4 µM [inhibitor, partial curve, poor fit]
NS(=O)(=O)c1ccc(Nc2ccc([N+](=O)[O-])c3nonc23)cc1 | inconclusive: 35.5 µM [inhibitor, single point]
CCN(C[C@H]1N[C@@](CC)(C(=O)OC)[C@H]2C(=O)N(C)C(=O)[C@@H]12)S(=O)(=O)c1ccc(C(F)(F)F)cc1 | inactive
NS(=O)(=O)c1ccc(CCNC(=O)CSCc2ccccc2)cc1 | inactive
N#C/C(=N\Nc1cccc(F)c1)C(=O)C1CC1 | inactive
COc1ccc(C2(CO)OC(CO)C(O)C2O)cc1 (stereo not drawn) | inactive
COc1ccccc1OCCSc1nc2ccc([N+](=O)[O-])cc2s1 | inconclusive: 17.8 µM [inhibitor, single point]
Cc1c(CCOC(=O)c2cc([N+](=O)[O-])cc([N+](=O)[O-])c2)sc[n+]1CC(=O)c1ccc(Br)cc1 | inconclusive: 17.8 µM [inhibitor, single point]
COc1cccc(C(=O)N(Cc2cccnc2)c2nc3c(OC)ccc(C)c3s2)c1OC | inconclusive: 14.1 µM [inhibitor, partial curve, poor fit]
Cc1ccc(C(=O)NNC(=S)NC(=O)c2ccc(Cl)cc2Cl)cc1 | inconclusive: 35.5 µM [inhibitor, partial curve, poor fit]
Cc1nc(SCC(=O)NC2CCS(=O)(=O)C2)c2c3c(sc2n1)CCC3 (stereo not drawn) | inconclusive: 12.6 µM [inhibitor, partial curve, poor fit]
Cc1cc(Cl)ccc1Oc1ccccc1C(=O)CC#N | inconclusive: 8.91 µM [inhibitor, partial curve, poor fit]
CSc1nccc(Oc2ccccc2Cl)n1 | inconclusive: 0.282 µM [inhibitor, full curve, poor fit]
CCN1C(N(C)C)=NC[C@@H]1Cc1ccccc1 | inconclusive: 0.126 µM [inhibitor, full curve, poor fit]
O=C(CN1C(=O)/C(=C/c2cccc(Br)c2)SC1=S)NCCCN1CCOCC1 | inconclusive: 3.98 µM [inhibitor, partial curve, poor fit]
COc1ccc(OC(=O)c2cccc([N+](=O)[O-])c2)c(C(=O)/C=C/c2cccs2)c1 | inactive

Structure (SMILES) | Potency
N#Cc1c(NC(=O)c2ccccc2Cl)n(Cc2ccccc2)c2nc3ccccc3nc12 | active: 7.94 µM
CCCCN1CC(=O)N2[C@H](c3ccc(Cl)cc3)[C@@H]3C(=O)N(CC)C(=O)[C@@H]3[C@]2(Cc2ccccc2)C1=O | inactive
COc1ccc(CC2(CO)CCN(Cc3ccc4nsnc4c3)CC2)cc1 | inactive
Cc1ccc(S(=O)(=O)NCCc2csc(-c3ccc(Cl)cc3)n2)cc1 | active: 11.2 µM
CCSc1ccccc1C(=O)Nc1ccc([N+](=O)[O-])cc1OC | inactive
Cc1ccccc1Nc1nc(N)nc(CN2CCN(c3ccccn3)CC2)n1 | inconclusive: 6.31 µM [inhibitor, single point]
CC[C@H](C)[C@H](NC(=O)OCc1ccccc1)C(=O)OCC(=O)N(C)CC(=O)Nc1ccccc1Cl | inconclusive: 3.55 µM [inhibitor, full curve, poor fit]
CCc1ccc(NC2=NCC(c3ccccc3)S2)cc1 (stereo not drawn) | inconclusive: 35.5 µM [inhibitor, partial curve, poor fit]
CCOC(=O)Cn1c(=O)n(C2CCCCC2)c2nc(-c3ccc(CC)cc3)nc(C(N)=O)c21 | inactive
Cc1cc(C)cc(NC(=O)Cn2c(=O)n(-c3cc(C)cc(C)c3)c(=O)c3oc4ccccc4c32)c1 | inactive
Cn1nc(C(=O)NCc2cccc(Cl)c2)c2c1-c1ccccc1S(=O)(=O)C2 | inconclusive: 15.8 µM [inhibitor, partial curve, poor fit]
CC(=O)N1CCN(C(=O)/C(C#N)=C/c2ccc3c(c2)OCO3)CC1 | inactive
COc1cc(C#Cc2c(-c3cncn3C)n(C)c3ccc(Br)cc23)cc(OC)c1 | inconclusive: 35.5 µM [inhibitor, single point]
CCCCCCCCC1CC(C(=O)Nc2ccccc2)C(=O)O1 (stereo not drawn) | inconclusive: 22.4 µM [inhibitor, single point]
COc1cccc(-n2c(SCC(=O)Nc3cc(C)ccc3C)nc3c(oc4ccccc43)c2=O)c1 | inactive
O=C(N/N=C/c1c[nH]c2ccccc12)c1cccc([N+](=O)[O-])c1 | inactive
CCOc1ccc(CCN2C(=S)N([C@@H](CC(C)C)CN3CCC[C@@H]3CN3C(=S)NC[C@@H]3CC(C)C)C[C@@H]2Cc2ccc(O)cc2)cc1 | active: 6.31 µM
COc1ccc(-c2cc(C(=O)Oc3ccccc3)c3cc(C)ccc3n2)cc1 | inconclusive: 22.4 µM [inhibitor, single point]
O=C(Nc1nnc(C2COc3ccccc3O2)o1)c1ccc(F)cc1 (stereo not drawn) | inconclusive: 17.8 µM [inhibitor, single point]
CCn1c(=O)n(-c2ccc(C)c(F)c2)c(=O)c2sc3ccccc3c21 | inactive
CCCCCCCCCCCCN1[C@@H](CC(=O)OC)c2cc(F)cc(F)c2S1(=O)=O | inactive
Cc1cc(OC(C)C(=O)Nc2ccccc2C(=O)N2CCCC2)ccc1Cl (stereo not drawn) | inconclusive: 5.62 µM [inhibitor, full curve, poor fit]
